Measurements published in PubChem BioAssay (NCI).
Where “and” joins values, the source holds several entries; their conditions need not be identical. Equal values may be shown once.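 A five-concentration, 48-hour dose response in 96-well plates underlies each endpoint, interpolated linearly between surrounding concentrations. GI50 is the concentration that inhibits growth by half. TGI: concentration producing complete growth inhibition.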 Square brackets hold non-standard residues; d marks the D form. Peptide text beside a SMILES is read from it. Phe(4-NO2) = N[CH](Cc1ccc([N+](=O)[O-])cc1)C(=O)O

System: NCI-H322M lung
Test: growth of human tumour cells (NCI), 48 h

Work on `CC1CC/C(=C\c2ccc(N(C)C)cc2)C2=C1C(c1ccc(N(C)C)cc1)NC(=S)N2` (centres undefined) yielded a TGI of over 100 µM.
`Cc1ccc(NC(=O)c2cc3ccccc3c(N=Nc3cc(S(=O)(=O)O)ccc3O)c2O)c(C)c1` showed a TGI of over 100 µM.
`O=C(SC1=NCCN1)c1cccc2ccccc12` was tested, and the TGI was over 100 µM.
Work on `C[Si](C)(N[Si](C)(C)OCCc1ccccc1)OCCc1ccccc1` yielded a TGI of over 100 µM.
Work on `CN(C)CCCNc1ncnc2c1ncn2C1OC(CO)C(O)C1O` (centres undefined) yielded a TGI of over 100 µM.
`CC1=NC2c3c(-c4ccc(Cl)cc4)cn(-c4ccc(C)cc4)c3N=CN2N1` (centres undefined) gave a TGI of over 100 µM.
For `CC(C)CC(=O)NC(C(=O)NC(C(=O)NC(CC(C)C)C(O)CC(=O)NC(C)C(=O)NC(CC(C)C)C(O)CC(=O)O)C(C)C)C(C)C` (centres undefined), the TGI was over 100 µM.
With `O=[N+]([O-])c1cc([N+](=O)[O-])c(/C=C/c2ccc(Cl)c(Cl)c2)cc1/C=C/c1ccc(Cl)c(Cl)c1` the TGI was 70.9 µM.
For `COc1cc(-c2oc3c(OC)cc(OC)c(O)c3c(=O)c2OC)cc(OC)c1OC`, the TGI was over 100 µM.
Work on `O=C1C=CC2(C=C1)CCNC1=C2C(=O)c2ccccc2C1=O` yielded a TGI of over 100 µM.
Compound `CCCCCCCCC/C(=N\NC(=O)c1ccncc1)c1ccc(O)c(O)c1O` has a GI50 of 0.105 µM and a TGI of over 50.7 µM.
Work on `Cc1[nH]c(=O)[nH]c(=O)c1/C=C/C(=O)NC(CO)CS(=O)Cc1ccccc1` (centres undefined) yielded a TGI of over 300 µM.
With `CC/C(=C(/c1ccc(O)cc1)c1ccc(OCCN)cc1)c1ccccc1` the GI50 was 4.59 µM and the TGI was 14.4 µM.
Compound `CCc1nc(N)nc(N)c1-c1ccc2nnn(O)c2c1` has a TGI of over 100 µM.
Compound `C[C@@H]1CCC([C@@H](C)[C@H]2CC[C@H]3[C@@H]4CC[C@H]5C[C@@H](O)CC[C@]5(C)[C@H]4CC[C@]23C)=NC1` has a TGI of over 100 µM.
`CCCCCCCCCCCCSC1=C(Cl)C(=O)C(OC)=C(OC)C1=O` was tested, and the GI50 was 3.87 µM and the TGI was 22.4 µM.
`CONC(C)=O` gave a TGI of over 100 µM.
Compound `COc1cc2c(cc1OCCCOS(C)(=O)=O)N=C[C@@H]1CCCN1C2=O` has a TGI of over 100 µM.
With `COc1ccc2c(c1)[nH]c(=O)c1c3ccccc3cn21` the GI50 was 0.0826 µM and the TGI was 2.54 µM and 6.95 µM.
Work on `Cc1c2c(OCC(O)CN3CCN(c4ccccc4)CC3)nn(C)c(=O)c2c(C)n1-c1ccccc1` (centres undefined) yielded a TGI of over 100 µM.
With `CCOC(=O)C(C(=O)OCC)c1ccc([N+](=O)[O-])o1` the TGI was over 100 µM.
For `CCCN(CCC)C(=S)N/N=C/c1ccccn1`, the TGI was 17.7 µM.
`COc1ccc(Sc2nc3cc(N)cc(N)c3nc2-c2ccccc2)cc1` gave a GI50 of 35.5 µM and a TGI of over 100 µM.
For `C=C1C(=O)O[C@H]2[C@H]1CC/C(C=Nc1c(N)cc(C(F)(F)F)cc1C(F)(F)F)=C\CC[C@@]1(C)O[C@@H]21`, the GI50 was 2.13 µM and the TGI was 6.33 µM.
With `Cc1cc(O)cc(C)c1/C=C/c1cncc(C(N)=O)c1` the GI50 was 8.63 µM and the TGI was over 25 µM.
`N#Cc1c(N2CCOCC2)nc(=S)[nH]c1-c1ccccc1` was tested, and the GI50 was 15.4 µM and the TGI was over 100 µM.
Work on `O=C(O)c1nc2ccc(C(F)(F)F)cc2nc1NCc1ccc(Cl)c(Cl)c1` yielded a TGI of 37.8 µM.
`CC(NC(=O)C(Cc1ccc([N+](=O)[O-])cc1)NC(=O)C(N)CCCCN)C(=O)NC(Cc1ccc([N+](=O)[O-])cc1)C(N)=O` (centres undefined) (H-K[Phe(4-NO2)]A[Phe(4-NO2)]-NH2; configuration not given here) gave a TGI of over 100 µM.
`N#Cc1ccc(CSC2=C(c3ccc(Cl)cc3)S/C(=C3\SC(SCc4ccc(C#N)cc4)=C(c4ccc(Cl)cc4)S3)S2)cc1` was tested, and the TGI was over 100 µM.
For `Cc1ccc(-c2n[nH]c(=O)n2NC(=O)c2ccccc2C(=O)O)cc1`, the TGI was over 100 µM.
In the case of `COc1ccc2[nH]cc(C(=O)C(=O)NC34CC5CC(CC(C5)C3)C4)c2c1`, the TGI is reported as over 100 µM.
`COc1ccc(Cc2c(=O)[nH]nc3ccccc23)cc1` showed a TGI of over 100 µM.
In the case of `CC(=O)Nc1c(I)c(NC(C)=O)c(I)c(C(=O)O)c1I`, the GI50 is reported as over 100 µM and the TGI is reported as over 100 µM.
`CN(C)CCCSc1nc2c(c(=N)n1-c1ccccc1)c(=S)n(-c1ccccc1)c(=S)n2-c1ccccc1` gave a TGI of 3.71 µM.
Work on `CC(=NNC(=S)Nc1cccc(C)c1)c1cccc(C(C)=NNC(=S)Nc2cccc(C)c2)n1` yielded a TGI of 37.4 µM.
In the case of `O=[N+]([O-])c1ccc(C2=Nn3c(nnc3-c3ccc(Cl)cc3)SC2)o1`, the TGI is reported as 28.3 µM.
With `CCOC(=O)c1cc(C(=O)c2cc(OC)c(OC)c(OC)c2)n2c1ccc1ccccc12` the GI50 was 0.708 µM and the TGI was over 100 µM.
`C/C(=N\NC(=S)NCCCCNC(=S)N/N=C(\C)c1ccccn1)c1ccccc1` was tested, and the TGI was over 53.7 µM.
In the case of `CCOC(=O)C(N=C(c1ccccc1)c1ccccc1)N(C(=O)OC(C)(C)C)C(=O)OC(C)(C)C` (centres undefined), the TGI is reported as over 100 µM.
`C[C@]12CC[C@@H]3c4cc(O)c(O)cc4CC[C@H]3[C@@H]1CC[C@@H]2O` was tested, and the GI50 was 10.4 µM and the TGI was over 87.4 µM.
`COC(=O)C1=C(OC(=O)/C(=C/c2ccccc2)c2ccc(Cl)cc2)C(C(=O)OC)[C@@]2(O)[C@@H](C(=O)OC)[C@H](C)C[C@@H]1[C@@H]2C(=O)OC` (some centres undefined) was tested, and the TGI was over 100 µM.
Compound `C#C/C=C\CCCCCCCCCCCCCC/C=C\CCCCC#CC(O)C#CCCCC/C=C\CCCCCC/C=C/C(O)C#C` (centres undefined) has a TGI of over 75 µM.
`O=C(NC(=O)c1ccccc1[N+](=O)[O-])Nc1ccc(Oc2ncc(Cl)cn2)c([N+](=O)[O-])c1` showed a TGI of over 49.7 µM.
`CN(C)CCNC(=O)c1cccc2c(NC(CS)C(=O)O)c3ccccc3[n+](C)c12` (centres undefined) was tested, and the TGI was over 100 µM.
Work on `O=C(O)C(C(=O)O)P(=S)(S)c1ccccc1` (centres undefined) yielded a TGI of over 100 µM.
`COc1ccc(NC(=O)CC/C(CC(=O)c2ccco2)=N/NC(N)=S)cc1` gave a TGI of over 100 µM.
`CN(C)CCCNC(=O)CCNC(=O)c1cc(NC(=O)c2cc(NC(=O)c3cc(NC(=O)c4nccn4C)cn3C)cn2C)cn1C` showed a TGI of over 100 µM.
In the case of `O=C1C=CC(=O)c2c1ccc1c3ccccc3n(-c3ccccc3)c21`, the TGI is reported as 34.3 µM.
`Cc1ccc(C(=O)Cn2c(C(=O)/C=C/c3cccs3)nc3ccccc32)cc1` was tested, and the TGI was over 100 µM.
With `CN(C)CCCCC(C(=O)CBr)(c1ccccc1)c1ccccc1` the GI50 was 4.1 µM and the TGI was 16.2 µM.
Compound `Cn1cc(C2=C(c3c4n(c5ccccc35)CCC(CN)C4)C(=O)NC2=O)c2ccccc21` (centres undefined) has a GI50 of 3.66 µM and a TGI of 7.32 µM.
`CCOC(=O)NC/C=C/COC1CCCCO1` (centres undefined) gave a TGI of over 100 µM.
With `c1ccc2cc(NCNc3ccc4ccccc4c3)ccc2c1` the TGI was over 70.3 µM.
With `C[C@]12CC[C@H]3[C@@H](CC=C4C[C@@H](O)CC[C@@]43C)[C@@H]1C/C(=C/c1ccccc1)[C@@H]2O` the TGI was over 59.3 µM.
Work on `COc1cc2oc(-c3ccc4c(c3)OCO4)c(OC)c(=O)c2c(OC)c1O` yielded a TGI of over 100 µM.
`Cc1nn2c(nc1=O)sc1ccc3ccccc3c12` showed a TGI of over 100 µM.
With `O=C(Nc1ccc(-n2cc(-c3ccncc3)c(-c3ccc(O)c(Cl)c3)n2)cc1)Nc1ccc(Cl)c(C(F)(F)F)c1` the GI50 was 4.26 µM and the TGI was 22.3 µM.
Compound `CCCCNC(=O)C1C(=O)N(CCCC)C(=O)/C1=N\N` (centres undefined) has a TGI of over 100 µM.
Work on `COc1ccc(Nc2cc(C)nc(NCc3ccccc3)n2)cc1` yielded a GI50 of 5.09 µM and a TGI of 18.9 µM.
With `Nc1ccc(Oc2ccc(C3(c4ccc(Oc5ccc(N)cc5)cc4)C4CC5CC(C4)CC3C5)cc2)cc1` the TGI was 1.74 µM.
For `N#CCCCCCOCCOCCOCCOCCOCCCCCC#N`, the TGI was over 100 µM.
Work on `Cn1c(=O)c2c(nc3sc4c(n32)C(=O)c2c(O)ccc(O)c2C4=O)n(C)c1=O` yielded a TGI of over 100 µM.
`CCOC(=O)C1(C(=O)OCC)C[C@@H](C)[C@@H](O)C1` gave a TGI of over 100 µM.
`N#Cc1cc([N+](=O)[O-])ccc1NC(=O)/C(=N\NC(=O)c1ccncc1)C(c1cnc2ccc([N+](=O)[O-])cc2n1)[N+](=O)[O-]` (centres undefined) gave a TGI of 11 µM.
`CCCCCCCCCCCC(=O)N1CCN(C(C)=O)CC1` showed a GI50 of over 100 µM and a TGI of over 100 µM.
In the case of `O=C([O][Hg][CH2]C1OCCOC1[CH2][Hg][O]C(=O)c1ccccc1)c1ccccc1` (centres undefined), the GI50 is reported as over 43.3 µM and the TGI is reported as over 59.8 µM.
Compound `COc1ccc(C(O)(c2ccccc2)c2nccc3ccccc23)cc1` (centres undefined) has a TGI of over 100 µM.
Compound `O=C(O)CCc1nc2ccccc2[nH]1` has a TGI of over 100 µM.
With `C/C(=N\NC(=S)N(C)C)c1nc2ncccc2[nH]1` the TGI was 50.9 µM.
With `Clc1ccc(Nc2ccnc(N3CCN(c4ccnc5cc(Cl)ccc45)CC3)n2)cc1` the GI50 was 6.6 µM and the TGI was over 100 µM.
`COc1ccc2c(O)c(/C=C3\N=Nc4ccccc43)oc2c1C[C@@H]1CCNC[C@H]1F` was tested, and the GI50 was 12.7 µM and the TGI was 27 µM.
Compound `Cc1cc(C)c(O)c(CN2CCN(C(C)C)CCN(C(C)C)CC2)c1` has a TGI of over 100 µM.
`O=C(/C(=C/c1ccc([N+](=O)[O-])cc1)SCc1ccc(Cl)cc1)c1ccc(F)cc1` was tested, and the GI50 was 25.9 µM and the TGI was over 100 µM.
For `CNC(=O)NCCN1CC2CCC(CC2)C1`, the TGI was over 10 µM.
